Experimental data: article PMC10726135
This is one part of the list. At the low end of the ranking the order means little. Measured with an extract: partners may take part in the binding.

molecular target: T1, HNF4alpha8 (COS-7 nuclear extract) (UniProt P41235-5); assay: protein-binding microarray; conditions: COS-7 nuclear extract on double-stranded Agilent 4x180k PBM; binding buffer, salt, pH and temperature not given; high values mean tight binding; double strand, one strand shown; sequences stand for … in …GCCTAGGGAGATTAGAGTATCGGTCGA
T1 sequence: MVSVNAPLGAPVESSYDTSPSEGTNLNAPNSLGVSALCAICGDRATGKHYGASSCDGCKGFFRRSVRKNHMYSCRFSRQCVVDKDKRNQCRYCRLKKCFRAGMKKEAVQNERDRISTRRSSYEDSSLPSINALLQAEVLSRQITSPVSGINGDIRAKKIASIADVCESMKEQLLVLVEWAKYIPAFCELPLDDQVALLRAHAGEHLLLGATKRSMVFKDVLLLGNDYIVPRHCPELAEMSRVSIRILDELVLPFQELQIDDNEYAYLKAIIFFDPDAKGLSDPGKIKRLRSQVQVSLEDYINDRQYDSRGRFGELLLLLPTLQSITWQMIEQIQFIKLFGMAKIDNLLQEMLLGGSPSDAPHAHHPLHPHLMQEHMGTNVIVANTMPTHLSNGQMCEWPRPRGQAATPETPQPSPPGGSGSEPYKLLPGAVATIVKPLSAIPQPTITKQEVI

Sequence	binding signal (log2 normalized intensity)
GATCAAAGGAAACTGCTTGGGCCCCTCCCT	1.56
CACCCCACACACACACAGCATTCCATTCAT	1.31
TTTGAAGTTTAGAGATGCCTATAGGGTCTT	0.989
TCAAGATGAAGCAAGAGTCCAAATTCCTAG	2.77
TACCTTTGAAACCTAAGATGTCACAGGCAA	-1.2
TAATTAGACAACATCGAAGACTTCATGATA	-1.28
CGTGGGCATGCCTCCCAGAGCATTGTTTAT	-0.764
GAAGGACGTCAGAACTGTCCTTTAACCTCC	4.8
CTGCCTTAGTCCCAGTATGGTCTCAGTAAT	0.518
GGAAATGGATTGCCTCCTAAGGCCTCCAGA	-1.34
ATCTGGGCCAAGGCAGATATACCAGATAAG	-1.28
ACCAGTGGACCATGAGAAACATCCACATGT	-1.13
TCTGTCTTTGATCTGCTATCTCAGATAGCT	-1.35
GGCTGCATTCCCAGATGGTTAGGTATTTTA	0.331
CTAGCTGTGTAACCCTGGACAAGTTATCTT	0.887
CACCCCCATCTATGCACTCTCACCTTGGGG	0.395
GGGAAGAGAGTATGGGATGATCAGTAAGGA	-0.104
TGTGTGTGTGTGGTGTGTGTGTGTGTGTTT	3.3
ATGGGGGAAGGGCTGGAGACGCAGGAGATG	-1.34
AGGTCTCTGCATACCAGGTAAGTGACATGC	0.69
ACATTTGCGCAAACATAAAGGCAAAGGTCA	5.6
ACTTTCAACAAGGTGGAGACCTCTGCAGGA	-1.02
CGTTGGTGCTCCCCCACCCTGTGTCAGCAT	4.05
AGACACTTTGGCTCCAGAGTCCACATTCTT	3.33
CATGATTGTAGCCAAACTCACAGCTTTTAT	-0.795

Sequence	binding signal (log2 normalized intensity)
GGGCATTCTGGAGTTTGGAACCAAATCAGC	2.89
TCAGATGCAGTCCAGAAGGTCAGGACCACA	1.36
GACTTGAGAAGACATAGTTTTTGCCCTTAA	2.7
TGCTTCCAGTTCCATAATCCCCGAATGTCC	2.97
AGGGGCATTTGAGTACATGCCTCTCCCAGT	0.468
TTTGCAAATGACTTTGAGAGTAAGTTTCTG	-1.22
CCCTCCCCCCACTCAAAATAGGAGTTAAGG	2.69
TTAAGCCAAAGTCCAAGTTGGTGAGAACAG	3.07
TACCTGTGCAGATATTTAACCTTTGATCTG	8.15
AAGGACTGGACCACCTCCTCAAAGAGCAGA	-0.817
AACCTGCTGCAGGAGAGATGGTCAGATTTT	0.707
CTGGCCCACTGTTCTCTCTAGAGAGAACAG	-1.31
GCAAACATTTCACTTTGCTCCCTCCTTCAG	0.734
CTGCCTTCCTGCTCATGCAGCTGCTGCCCA	-1.29
TTTGCCTGGTGATCTTTGTTAGACCCTTAT	2.77
TAGTAAATATTAGGCAAGCTAAGATGAGGG	-1.11
TCATGATGGGAAGCCTCAGGAGTTGGAGGA	-1.31
GGGGAGCAGGCAGAGGAACAGAGGGGTCTG	-1.12
GATATTTTGAGGGCTCAAAGGTTACCACCC	5.08
GAAAAGAAATGTAGTGACAGAAGGGAGAGT	-1.37
CGACTGGGCCAGGAGCAGGAGCAGAAGCAG	-1.25
GGCTTTATCTGTGAGAATCCCAGCTCGTGG	-1.29
TTATCTGAATCTGGAATCACGTTCGCCTAA	-1.21
TTTCTGAACACTCCAAGGTGTCCAGCTTAG	-1.23
AGGTGCAAAGTACATATTTACTTACCTTTT	3.68

Sequence	binding signal (log2 normalized intensity)
CCTGAAAGGCCAAGCCAGTTTCCAGGGAGG	-1.2
AATGATACCAACAGGCTTAACATAAAGGGT	-1.19
GTCAGGGTTCTCAGACCACCAGCTGCTTCG	-1.34
AGCAAGAATGTAAATAGCTAGGTACTTTGA	1.94
ATATTGCAGTGTAGATTAAATCCTCGAAGA	-1.13
GATTTCTAGTTAATATCTAAGATGTAGCTG	0.125
TACTGGATATAGCCAGATGTCCTTTGAAGA	1.41
AATCTGGCTAATGCATGTCCCTCCTCAACC	0.982
GGTGGACATGGTTCACTGATTACTGGATGT	0.982
GACAAAGTGTCACAAACTATCAGTGAAGAG	-0.99
ATTCTCTTATCTACTTTAAGATTTGACCCT	5.76
CCCAGAGGTCACACTGATACAGCATGGCCC	-0.36
GGTTCCCCTTCCCCCAACAGGGCTCCTGTT	3.4
GCCTCAGATTAATGTCAGCCTGCTCAGGGA	-1.53
CCGCCTCCACACCCCAGCCTGCCCTCCTAG	3.47
GGCAAAATGGCATATCTAGGATCACGCCAT	-1.43
ACTGCAGAAACTCTGCAGTAACTGTCATGG	0.255
ATGATCAAAGGTTAGTCTTAGGACCACATG	3.21
TGAGTGCTTCTTGAATGAAGGAACAGGTTC	0.579
ACAGAAATCATGTAGCCAGATAAGAGCTAT	-1.36
AGCCCAGAGACAGTGGAATCTACAGAATTC	-1.35
CGCCCAGTCCCGCCGCTTCCCCACCCCCTC	5.63
GCGGGGAGTCTCCTGGGTAATCACCAAACT	-1.4
TGTGACCTCCAACTATTGCTCAGCAGGGAG	-1.26
AGGCAGCTAGGCAGGCTCAGAACTACCAAT	-1.41

Sequence	binding signal (log2 normalized intensity)
CTGCAATCAGAGCTGGATGTGAGTTATGAC	0.899
CTGAACCTCTGTCTCTCAGGCACAGCTCGA	-1.27
AGTTTGCTGTCTTGACTTGGTTCGGGTTTT	1.69
ACCTCCCGTGCCCCCTTTTGCTTTCCGTTA	2.36
AGTGTCTCTACTGTCCATCTTTTGCCCCTC	4.79
CTCAGAAATCCCCAAACTTAAAAGAAGCTA	-1.27
ATTGGGATGGAGTAACTTGCTAAGTATAAA	-1.12
TAGAGTGGAGTGAAGTAAGAGTAGCAGAAG	-1.43
GAACTTTGTTTGTGTTTCCCTCCCTGGTAT	3.26
CCCCAGAGGAAGACATCATATTTGTTATAT	0.792
ACACAGGAAGGGGGATGTCTTTTAGAAGCT	-1.25
AAGATAATGGGTCCGAAGGTCAGCTGACCA	5.57
AGAGCCCCCTTGATGCATCAGACCCCTGAG	4.42
CATAAAACATTCTATTCTATCTGTATTCTG	0.74
GTTTTTGATTTTGCAGGCTGATAGGCAGAA	-0.169
TTCCCTTTATTTAGCCTCACTAAGATAGGG	0.286
GTTAATTATAATCGCAGAATAAACGCTGAA	-1.32
GGCACCAACACTTCCCAATCAGAAACCGGG	-1.35
TGATTACACAGGCCTTATAGGGCATACCCT	0.136
CCTTGCACTATTGACCCAGTGAAACAACAC	2.28
GCCAAACTCTCACTCTACTCTCTTTGGAGT	-0.0021
TTGTGGCATCAGGGTCCACAAGGGTTTAAA	2.52
TAGACTTTGCTTTCTTGGAGGTTAACATTT	2.31
CATGCTCTTGGAATGTTGAACCTTTCTTTG	3.19
TTTATAATCCTAGCTTGGTTTTTCTGGGAC	0.942

Sequence	binding signal (log2 normalized intensity)
ACTGTCTGCTATGTGTATATGAGTGTATAG	1.74
AAGGTACTTATCAGAGGAAATTCAGATCAA	-1.11
ACGAAGGCATTCTTAACAAAACCTGTTTAG	-1.38
CAATAATCTTTGCCCTTGAAGATACAGTTA	1.9
CCTTGAAACCCCTCCTTACAGTGCCCTCTG	4.3
TTTTTTCTTATCTCACTGGATGTGTACCTC	2.4
CCCACAGGGGTAGAAGCTGAGCAGCAATCA	-1.37
GATGGCTCTGCAGAGGCTTCCTCTTTGGTG	-1.32
CAGCTCCTCTCCTCCATGGCCTGGGGCCCT	-1.29
ACACACTCACGGACCCTGTTACCACACCAC	-0.557
CAAATTTATATCAGAGGAATGTCTGACCAA	1.17
TGTAAACATGTGAGGAAGGCTCTTTGTTCA	0.621
CCGCCGCTAGGTGGCGGGCTGGCTCAGGAC	-1.37
ACCTTTGGTTAACTTCTTAACTTGGTTTCC	1.23
GGCCTCCCCATCCTCATGACAGTACCTCTC	2.55
GCAGCTAGCTCCAGTTGGTTGCTAAGAGAC	-1.38
TCCCAAGCATGTTTGGTGACCCGTGACCCT	5.63
CTCCTCCTCGTGAGTTGGAGACAGGAGAGG	-1.18
GACCCTTCATAGCTTACTTGACAAATGGGG	1.02
GGAATGTGACCTTAGACCCCTGAATAGGTC	5.67
AGTCAGTTTAGTCCTGGATGACCCAGATAG	1.97
TAGATAGGAATCTGGATGGCTGAGCTGTAA	-1.01
ATTTACCGTCTCTCACCAAATCCCTGCCCA	0.677
ACTGTTTGTGCAGAGGAGATCAGAGGAGGC	-1.33
GACTCAGCTCCCATAGAGTCCACCACTGAC	1.18

Sequence	binding signal (log2 normalized intensity)
ACCACAAAGCAGTGAGTGAAACATCCCACT	-1.37
GCAGGGCTACTGTGGTTCCCAAGAAGAGCC	-1.34
AAGTTTAATCCTCTCACCCAAGATCAAAGA	2.82
TCTGCTACTAACTGCATGACTTCAGAAAGT	-1.22
AAAGGATCAACTTTCAGAAGGGGACAAGCA	-1.29
GAAGGCTCCCAAGGTATCCTCCTAGAGTCC	1.07
ACAAATTAGACAAGGTTTGTAACAAGTGCT	-1.36
CGAAGAGCAGCCAGCTGCAGAGGAAGGACA	-1.28
GACGACTGTCTGCCATGGGCCTGGCTGAGC	-1.22
AACTACAGTTGACCTTTGAACACCACAAGT	8.13
ATACAAACAAATTGTGTGCAACAGGAGCCC	-1.36
TTACTTTTGCAAGGTTTGTTCTTATCATGC	0.712
CAGTTTATTTACTGTCCTCAAACTGTCACC	0.783
CAGATCACATTGTTTTGGAGTTAGCTGTCT	0.651
CCCAGTTGCCTTCCTGTTAGATAGAGGAGT	-0.191
CAGGTGTGTGGCATCTTGGGGTCAAGGCCT	3.43
ACCTTATCAAGTCCGAACTCACTACAAACG	-1.29
AGCTCTTGGGGAACAATCGCCACTGATTGA	-1.4
TTGAGGCCTTCGTTGGAAACGGGATTTCTT	-1.13
AGAGGGAAGACCAAAGGCCAAAGAGCAAAG	1.1
